Among all 310,000 compounds or so, about 14,000 (4.5%) showed an effect of 50% or more. Effects have a minus sign here. Some of the results follow.
These compounds were tested against human ether-à-go-go-related gene (hERG) potassium channel (human, UniProt Q12809) (assay: primary screen, population patch clamp on CHO cells stably expressing hERG).
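Also: peak tail current of the secondary pulse compared with the same well before compound.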

human ether-à-go-go-related gene (hERG) potassium channel, sequence (Q12809 whole entry, looked up): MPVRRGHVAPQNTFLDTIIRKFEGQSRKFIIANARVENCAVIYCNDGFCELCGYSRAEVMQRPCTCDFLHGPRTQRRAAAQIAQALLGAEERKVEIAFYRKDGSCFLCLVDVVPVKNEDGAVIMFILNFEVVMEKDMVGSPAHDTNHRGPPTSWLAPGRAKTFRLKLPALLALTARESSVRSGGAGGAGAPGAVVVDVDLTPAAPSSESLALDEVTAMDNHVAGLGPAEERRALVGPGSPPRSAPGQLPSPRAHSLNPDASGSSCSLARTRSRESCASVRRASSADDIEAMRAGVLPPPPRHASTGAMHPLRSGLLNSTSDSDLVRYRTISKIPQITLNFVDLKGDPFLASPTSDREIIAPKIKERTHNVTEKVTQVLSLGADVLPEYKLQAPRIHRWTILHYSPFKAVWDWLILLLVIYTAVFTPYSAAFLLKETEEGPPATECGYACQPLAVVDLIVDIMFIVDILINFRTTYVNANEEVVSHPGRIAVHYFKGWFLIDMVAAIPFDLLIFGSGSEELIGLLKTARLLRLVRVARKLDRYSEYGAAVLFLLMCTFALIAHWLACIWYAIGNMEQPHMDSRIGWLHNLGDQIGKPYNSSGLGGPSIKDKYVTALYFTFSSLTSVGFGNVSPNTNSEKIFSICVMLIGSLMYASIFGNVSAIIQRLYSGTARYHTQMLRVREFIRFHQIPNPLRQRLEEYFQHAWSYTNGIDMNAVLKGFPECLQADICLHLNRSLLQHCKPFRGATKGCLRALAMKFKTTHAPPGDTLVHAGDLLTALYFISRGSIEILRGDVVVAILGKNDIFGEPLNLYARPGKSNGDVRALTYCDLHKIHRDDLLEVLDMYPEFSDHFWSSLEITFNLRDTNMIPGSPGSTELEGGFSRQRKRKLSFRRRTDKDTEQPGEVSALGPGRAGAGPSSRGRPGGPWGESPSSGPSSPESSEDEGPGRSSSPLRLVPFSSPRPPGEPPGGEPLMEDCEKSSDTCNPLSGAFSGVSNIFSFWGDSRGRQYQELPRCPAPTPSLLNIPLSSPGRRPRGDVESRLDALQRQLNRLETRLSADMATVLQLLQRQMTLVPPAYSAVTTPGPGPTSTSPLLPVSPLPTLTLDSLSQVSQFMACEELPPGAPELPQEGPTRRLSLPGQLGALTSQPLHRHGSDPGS

| Compound | hERG current change (%, negative = inhibition) at 10uM [%] |
| --- | --- |
| C=C1CCN([C@@H](C)C(=O)OCc2cccc(C)c2)S(=O)(=O)c2ccccc21 | 0.747 |
| CCOc1c(P(=S)(N(C)C)N(C)C)c(C)nn1-c1ccccc1 | 2.73 |
| CCC(NS(=O)(=O)c1c(C)[nH]c(=O)[nH]c1=O)C12CC3CC(CC(C3)C1)C2 (stereo not drawn) | -5.89 |
| CCCN(Cc1ccccc1)C(=S)Nc1ccc(F)cc1 | 13.2 |
| CCOC(=O)c1sc(Nc2nc3c(OC)cccc3s2)nc1C | 2.25 |
| Cc1cc(C)c2nc(SCC(=O)Nc3cc(C)on3)c(C)cc2c1 | 20.5 |
| N#CC(C(=O)c1ccc(S(=O)(=O)N2CCCCCC2)cc1)c1nc2ccccc2[nH]1 (stereo not drawn) | 2.37 |
| COc1ccc(N2C(=O)CSC23C(=O)N2CCCc4cccc3c42)cc1 (stereo not drawn) | 0.569 |
| Cc1cc(C)cc(NS(=O)(=O)c2ccc3[nH]cc(C(=O)N4CCc5ccccc54)c(=O)c3c2)c1 | 1.09 |
| C=CCn1c(SCc2ccc(Cl)cc2)nc2c1c(=O)[nH]c(=O)n2C | -2.54 |
| O=C(Nc1ccc2c(c1)OCO2)c1cnccn1 | 4.36 |
| CC(C)(C)OC(=O)[C@H](Cc1ccccc1)NC(=O)c1nc[nH]c1C(=O)NCc1ccccc1 | 1.7 |
| CCOC(=O)c1cnn(CCOC(=O)c2ccccc2)c1NC(=O)c1ccccc1 | -5.33 |
| O=C(NCCCNC(=O)c1ccco1)c1cccc(F)c1 | 7.01 |
| COCC(C)n1c(SCc2nc3ccccc3c(=O)[nH]2)nc2ccccc2c1=O (stereo not drawn) | -13.4 |
| COc1ccc(CNC(=O)c2c(C)cc(=O)oc2C)cc1OC | 6.84 |
| Cc1ccc(F)c(C2=CC(=O)C[C@H](c3ccc(F)cc3)C2)c1 | -10.8 |
| C=CCn1c(C(O)c2ccccc2)nc2ccccc21 (stereo not drawn) | 14.2 |
| O=C(NC1CC1)C1CCN(C(=O)c2ccccc2Cl)CC1 | 21.3 |
| CCn1c(Cn2nnc(-c3ccccc3)n2)nnc1SCC(=O)Nc1cccc(C(C)=O)c1 | -33.8 |
| CCN(Cc1ccccc1)c1ccc(/C=C(\C#N)c2ccccn2)cc1 | 3.87 |
| O=C(Nc1ccc(N2CCN(C(=O)c3ccccc3)CC2)cc1)c1ccc(Br)o1 | -75.9 |

| Compound | hERG current change (%, negative = inhibition) at 10uM [%] |
| --- | --- |
| C/C(=C\c1ccccc1)C(=O)Nc1cc(C)on1 | -1.27 |
| CCC1CCCCN1CCCNC(=O)c1cc2c(=O)oc3ccc(C)cc3c2s1 (stereo not drawn) | -69.5 |
| CC1(C(=O)N2CCN(C(=O)c3ccco3)CC2)CC1(Br)Br (stereo not drawn) | -3.81 |
| c1ccc(-c2oc3ncnc(NCCCN4CCOCC4)c3c2-c2ccccc2)cc1 | -87.1 |
| C/C(=N\O)C(C)/[N+]([O-])=C/c1nc(C)c(C)n1O (stereo not drawn) | 20.2 |
| CC(C)(C)Cc1nnc(NC(=O)Cc2cccs2)s1 | 25.7 |
| COc1ccc(-c2nn(CCC#N)cc2C(=O)Nc2ccccc2Br)cc1 | 20.4 |
| O=C(Oc1ccc(N(C(=O)c2ccncc2)S(=O)(=O)c2ccc(Cl)cc2)cc1)c1ccncc1 | -11.5 |
| O=C1CC(c2ccccc2)CN1C(=O)c1ccccc1 (stereo not drawn) | 17.7 |
| c1ccc(N2CC3CCc4ccccc4C3=N2)cc1 (stereo not drawn) | 9.87 |
| O=C(CCC(=O)N(c1ccc(F)cc1)C(C(=O)NC1CCCC1)c1ccncc1)Nc1cccnc1 (stereo not drawn) | -9.14 |
| CCc1cc2c3c(c1)/C(=C1/SC(N)=NC1=O)C(=O)N3C(C)(C)C=C2C | 14.1 |
| O=C(COC(=O)/C=C/C(=O)N1CCN(c2ccccc2)CC1)NCc1ccc(F)cc1 | -8.17 |
| CCOC(=O)c1nn(-c2ccc(Cl)cc2)c(C)cc1=O | -0.00902 |
| CCCCC(=O)Nc1cccc(-c2ccc3nncn3n2)c1 | -13.8 |
| S=P(NC1CCCCC1)(N1CC1)N1CC1 | 18.8 |
| CC(=O)Nc1ccc(NC(=O)C(C)OC(=O)c2cc(S(=O)(=O)N3CCOCC3)ccc2Cl)cc1 (stereo not drawn) | 7.99 |
| CN1C(=O)C(CC(=O)Nc2ccc(F)cc2)N(Cc2cccs2)C1=S (stereo not drawn) | -17.7 |
| CCCCn1nc(C(=O)NCC(=O)Nc2c(C)cccc2C)c2ccccc2c1=O | -68.9 |
| CS(=O)(=O)c1ccc(C(=O)NC2CCCc3ccccc32)cc1 (stereo not drawn) | 20 |
| CCOc1ccc2[nH]c(=S)[nH]c2c1 | 18.5 |
| COc1cc(CCC(=O)Nc2ccc(C)c(S(=O)(=O)N(C)C)c2)cc(OC)c1OC | 0.188 |

| Compound | hERG current change (%, negative = inhibition) at 10uM [%] |
| --- | --- |
| COC(=O)c1ccc(NC(=O)N(c2ccccc2)c2ccccc2)cc1 | 15.2 |
| CCN(CC)C(=O)Cn1cc(S(=O)(=O)CC(=O)NCCc2ccc(OC)c(OC)c2)c2ccccc21 | 9.07 |
| Cn1nc(CC(=O)Nc2cccc3ncccc23)c2ccccc2c1=O | -19.7 |
| CC(=O)NC(CCCN1C(=O)c2ccccc2C1=O)c1nnn(C)n1 (stereo not drawn) | 3.04 |
| O=C(C1=C[C@H](C2CCCCC2)C[C@H](OCCCCO)O1)N1CCN(Cc2ccccc2)CC1 | -46.4 |
| Nn1c(SCC(=O)Nc2ccc(OC(F)F)cc2)nnc1-c1ccco1 | -23.1 |
| CNc1cc(N2CCN(C)CC2)ccc1[N+](=O)[O-] | -10.5 |
| COc1ccccc1-n1cnnc1SCC(=O)NC1CCCC1 | -5.37 |
| COc1ccc(-n2c(SCC(=O)Nc3nccs3)nc3c(c2=O)SC(C)C3)cc1 (stereo not drawn) | -13.5 |
| COc1ccc(OC)c(N=c2ssnc2Cl)c1 | -11.3 |
| CCOc1ccc(-n2c(SCC(=O)Nc3nccs3)nc3c(c2=O)SCC3)cc1 | -5.18 |
| O=C(c1ccc(Cl)c(F)c1F)N1CCCC1 | 7.66 |
| CC(C)(C=O)C1=CC(=O)c2ccccc2C1=O | -5.06 |
| COc1ccc(N(C(=O)c2ccco2)C(C(=O)NC2CCCCC2)c2ccccc2)cc1 (stereo not drawn) | 10.9 |
| O=C(CN(c1ccccc1Cl)S(=O)(=O)c1ccccc1)N/N=C/c1ccccc1C(=O)O | 28.6 |
| Cc1noc(/C=C/c2ccco2)c1S(=O)(=O)N1CCC(C(=O)N(C)Cc2ccccc2)CC1 | -4.68 |
| Cc1nc2ccc(NC(=O)c3ccco3)cc2s1 | 6.49 |
| CC1CCCCN1C(=O)COc1ccc(S(=O)(=O)N2CCCC2)cc1[N+](=O)[O-] (stereo not drawn) | -16.8 |
| CN1CCN(C(c2cccs2)c2nnnn2Cc2ccc(F)cc2)CC1.Cl (stereo not drawn) | -13.1 |
| O=C(C1CCN(S(=O)(=O)c2cccc3nsnc23)CC1)N1CCn2c1nc1ccccc12 | -25.6 |
| NC(=O)C1CCN(c2nc(-c3ccc(F)cc3)cs2)CC1 | 3.46 |
| CCN(CC(=O)NCc1ccc(Cl)cc1)C(=O)COc1ccc(C)cc1C | -78.4 |

| Compound | hERG current change (%, negative = inhibition) at 10uM [%] |
| --- | --- |
| CC(=O)Nc1ccc(C(=O)CN2C(=O)NC3(CCOc4ccccc43)C2=O)c(F)c1 (stereo not drawn) | -20.5 |
| C=CCNc1nc(C(=O)OCC(=O)NCc2cccc(Cl)c2)cs1 | -7.11 |
| O=C(NCCS(=O)(=O)N1CCN(c2ccccc2)CC1)c1ccc(Br)o1 | -5.85 |
| Cc1ccccc1OCC(=O)NNC(=O)c1cc(S(=O)(=O)N(C)C)ccc1N1CCCC1 | 0.0569 |
| Cc1cc(C)nc(SCc2cccc(C(=O)O)c2)n1 | 8.4 |
| N#C/C(=C\c1ccc(OCc2cccc(C(=O)O)c2)cc1)C(=O)NCc1ccco1 | 13.2 |
| CC(=O)c1ccc(NC(=O)CSCC(=O)Nc2ccc3ccccc3c2)cc1 | 12 |
| Cn1c(=O)c2c(SCC(N)=O)nc(CC(C)(C)C)nc2n(C)c1=O | -10.5 |
| CCc1nnc(NC(=O)C2CCCN(S(=O)(=O)c3ccc(OC)cc3)C2)s1 (stereo not drawn) | 7.4 |
| O=C(NNCc1ccc(O)cc1)c1ccccc1Cl | 5.16 |
| CCCNC(=O)CSc1nnc(-c2ccco2)n1C | -2.38 |
| O=C(NCc1ccco1)c1cc2c(s1)CCCCC2 | -8.23 |
| Cc1ccc(OCC(=O)NS(=O)(=O)c2ccc(Cl)cc2)cc1 | 17.9 |
| CCOC(=O)C(NC(=O)CC)(Nc1sc(C)c(CC)c1C#N)C(F)(F)F (stereo not drawn) | -16.8 |
| CC(NCc1ccc(F)cc1)C(=O)Nc1cc(S(=O)(=O)N2CCCCC2)ccc1Cl (stereo not drawn) | -15.9 |
| Cc1cccc(NC(=O)c2cc(NC(=O)C3CCCCC3C(=O)O)ccc2N2CCCCC2)c1 (stereo not drawn) | -22.5 |
| COc1ccc2c(CC(=O)N[C@@H](Cc3ccccc3)C(=O)O)cc(=O)oc2c1 | 1.26 |
| O=C(N1CCN(c2ccccc2)CC1)C1(S(=O)(=O)c2ccc(Cl)cc2)CC1 | -42.1 |
| O=C(NCc1ccco1)c1ccc(C(=O)NCc2ccco2)s1 | 4.05 |
| CCCn1c(=O)[nH]c(=O)c2c1nc(-c1ccc(C#N)cc1)n2CCOC | -2.78 |
| COc1cccc(C(=O)Nc2cc(=O)n(C)c(=O)n2C)c1OC | 13.1 |

From PMC4336329 (PLoS ONE, 2015)
